Test results from article PMC12040169 (PLOS Biology, 2025).
The other results are listed elsewhere or left out.

The compounds below were run on T1, C. trachomatis L2/434/Bu expressing GFP (CTL2-GFP). Settings: total inclusion area; 28.5 h, 10 µM; inhibitor.
T1 construct: L2/434/Bu GFP intracellular growth in HeLa cells
Parameters: species or system HeLa; C. trachomatis total inclusion area by high-content imaging, normalised to DMSO
Method in brief: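 High-content imaging followed the bulk GFP/resorufin measurement: fixed, Hoechst-stained cells were scored for GFP inclusions and host nuclei per well. Total inclusion area and count served as growth proxies, nuclei number as the viability proxy. MIC calculation matched the bulk assay.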
With `O=C(CCSc1ccc([N+](=O)[O-])cc1Cl)Nc1ccc(Br)c2cccnc12` [CBK266407] the “% of control remaining” value was 71.5105.
In the case of `CC(=O)Nc1cccc(C(=O)N2CCN(CC3CCCO3)CC2)c1` (stereo not drawn) [CBK305158], the “% of control remaining” value is reported as 47.8637.
In the case of `COc1ccc2[nH]c3c(c2c1)CN(C(=O)CCC1CCCO1)CC3` (stereo not drawn) [CBK281530], the “% of control remaining” value is reported as 95.7629.
For `Cc1cc(C)c2c(C)nn(-c3ccc(C(=O)O)cc3)c2n1` [CBK267480], the “% of control remaining” value was 91.5142.
In the case of `c1ccc(N2CCN(c3nc4cc5c(cc4s3)OCO5)CC2)cc1` [CBK287495], the “% of control remaining” value is reported as 97.8553.
For `O=C(Nc1ccc(Sc2ccc([N+](=O)[O-])cc2)cc1)c1ccc2c(c1)C(=O)N(c1ccccc1-c1ccccc1)C2=O` [CBK261340], the “% of control remaining” value was 95.4867.
`O=C(Nc1ccccc1Cl)N1CCN(c2ccc(F)cc2)CC1` [CBK117849] was tested, and the “% of control remaining” value was 70.3035.
`NC(=O)C[N+]1(CC#CC(O)(c2ccccc2)c2ccccc2)CCCC1` [CBK262703I] was tested, and the “% of control remaining” value was 107.629.
In the case of `CC(=O)c1ccc(-c2nc(NC(=O)c3ccccn3)cnc2-c2cccc(OC(F)(F)F)c2)s1` [CBK036929], the “% of control remaining” value is reported as 111.864.
With `CC(C)c1ccc(C(=O)NC2CCN(CC(F)(F)F)C2=O)nc1` (stereo not drawn) [CBK304089] the “% of control remaining” value was 50.2301.
In the case of `COc1ccc([N+](=O)[O-])cc1NC(=O)CSc1nnnn1C` [CBK268950], the “% of control remaining” value is reported as 116.376.
For `O=C(O)C1CCCN(C(=O)NCc2c(Cl)cccc2Cl)C1` (stereo not drawn) [CBK161362], the “% of control remaining” value was 79.3406.
`OCCCn1c(-c2ccc(Cl)cc2)cn2c3ccccc3nc12` [CBK262900] was tested, and the “% of control remaining” value was 99.9304.
In the case of `COC(=O)c1c(NC(=O)CC2Nc3ccccc3NC2=O)sc2c1CCC(C(C)(C)C)C2` (stereo not drawn) [CBK265614], the “% of control remaining” value is reported as 59.9092.
With `COc1ccc(Oc2nccnc2N2CCN(CC3CCCCC3)CC2)cc1OC` [CBK083064T] the “% of control remaining” value was 101.123.
In the case of `Cc1nn(Cc2ccc(F)cc2)c(C)c1NC(=O)c1cnn2c(C(F)(F)F)cc(-c3ccccc3)nc12` [CBK268231], the “% of control remaining” value is reported as 96.4832.
`CCN1CCC[C@@H]1CNc1cc(NS(=O)(=O)c2cccs2)cc2ccoc12` [CBK067904C] was tested, and the “% of control remaining” value was 88.1227.
With `CCOC(=O)CN1CCC(Oc2nccnc2OCc2ccc(Cl)c(Cl)c2)CC1` [CBK083113T] the “% of control remaining” value was 98.6062.
With `Brc1ccc(/C=N\c2ccc3c(c2)ncn3CCn2cnc3cc(/N=C/c4ccc(Br)cc4)ccc32)cc1` [CBK262285] the “% of control remaining” value was 105.548.
In the case of `O=C(CSc1nnc(SCc2cccc3ccccc23)s1)Nc1ccc(F)c(Cl)c1` [CBK267574], the “% of control remaining” value is reported as 87.7505.
For `CCc1[nH]nc2c1C(C1C=CCCC1)C(C#N)=C(N)O2` (stereo not drawn) [CBK270236], the “% of control remaining” value was 74.6048.
For `CCN(Cc1nccn1CC)[C@H]1CCO[C@@H](c2ccccc2-c2ccc(OC)cc2)C1` [CBK285852], the “% of control remaining” value was 81.8176.
For `O=C(O)c1cccc(N2C(=O)C3C4C=CC(CO)(O4)C3C2=O)c1` (stereo not drawn) [CBK287066], the “% of control remaining” value was 99.0197.
With `CC(C)(C)OC(=O)CN1C(=O)N[C@@H]2CCCC[C@@H]21` [CBK003423] the “% of control remaining” value was 96.9387.
`O=C(NCCOc1ccccc1)c1nn(-c2ncccn2)c2ccccc12` [CBK048494] was tested, and the “% of control remaining” value was 120.482.
For `CN1C[C@@H](NC(=O)c2ccc(C#N)cc2)C[C@H]1c1nc(-c2ccc(F)cc2)no1` [CBK288865], the “% of control remaining” value was 79.2571.
In the case of `Cc1ccc(Nc2ncc(C(=O)NCCCN3CCN(c4cccc(Cl)c4)CC3)c3ccccc23)cc1Cl` [CBK291251], the “% of control remaining” value is reported as 25.9041.
In the case of `O=c1[nH]c2cc(Cl)cc(Cl)c2o1` [CBK015711], the “% of control remaining” value is reported as 88.1156.
For `O=C(Cc1csc(-c2ccsc2)n1)Nc1nc2c(s1)CCC2` [CBK297935], the “% of control remaining” value was 84.5879.
In the case of `CCCCCCn1nc(C(=O)NCC(=O)O)c2ccccc2c1=O` [CBK297491], the “% of control remaining” value is reported as 107.523.
`COc1ccc(CCC(=O)N2CCCC(c3nccnc3-c3cccc(C)c3)C2)cc1` (stereo not drawn) [CBK286510] was tested, and the “% of control remaining” value was 111.377.
`CCC(NS(=O)(=O)c1cnc2c(c1)c(C)nn2C)C(O)C(F)(F)F` (stereo not drawn) [CBK306264] was tested, and the “% of control remaining” value was 35.2497.
For `CC(=O)N1Cc2ccccc2OC2(CCN(C(=O)C3CC3)CC2)C1` [CBK285037], the “% of control remaining” value was 103.23.
With `CCC(Sc1ncccc1C(=O)O)C(=O)O` (stereo not drawn) [CBK263216] the “% of control remaining” value was 35.8278.
`COc1ccc(CN2CCCN(c3ccnc(OCC4COc5ccccc5O4)n3)CC2)cc1` (stereo not drawn) [CBK083234T] was tested, and the “% of control remaining” value was 76.9791.
For `O=C(COc1ccc(S(=O)(=O)N2CCCC2)cc1Cl)NCc1ccccn1` [CBK268412], the “% of control remaining” value was 93.5072.
For `Cc1cc(C)nc(Nc2n[nH]c(Cc3ccccc3)n2)n1` [CBK267023], the “% of control remaining” value was 113.221.
`Cc1nn(C)c(C)c1CN(C(=O)C(C)Oc1ccccc1F)C1CC1` (stereo not drawn) [CBK281480] was tested, and the “% of control remaining” value was 75.668.
`COc1ccc(N2C(=O)c3ccc(C(=O)OCC(=O)c4ccc(-c5ccccc5)cc4)cc3C2=O)cc1` [CBK263532] was tested, and the “% of control remaining” value was 108.814.
In the case of `CC(C)(C)c1ccc(S(=O)(=O)N2CCSC2)cc1` [CBK095672], the “% of control remaining” value is reported as 90.4471.
With `NC(=O)c1c(NC(=O)COc2ccc3ccccc3c2)sc2c1CCCCC2` [CBK265380] the “% of control remaining” value was 104.581.
In the case of `O=C(N/N=C/c1ccc(O)c(I)c1)c1ccncc1` [CBK262144], the “% of control remaining” value is reported as 101.922.
For `CCN(C)C(=O)c1cn2cc(-c3cc(C)oc3C)n(C)c(=O)c2n1` [CBK307494], the “% of control remaining” value was 63.893.
In the case of `CC(C)(C)c1cc(C(=O)N/N=C/c2ccc(O)c([N+](=O)[O-])c2)[nH]n1` [CBK263844], the “% of control remaining” value is reported as 112.142.
For `Cc1ncccc1-c1cc2cccnc2n1CCC(=O)NC1CC1` [CBK282690], the “% of control remaining” value was 83.8461.
For `CCOc1ccsc1C(=O)Nc1ccccc1N1CCCNCC1` [CBK036354T], the “% of control remaining” value was 91.8824.
`O=C(Cn1c2ccccc2c(=O)c2ccccc21)Nc1ccc(-n2cncn2)nc1` [CBK295350] was tested, and the “% of control remaining” value was 40.1262.
In the case of `O=C(O)c1ccc(N2C(=O)c3ccc(Oc4ccc(S(=O)(=O)c5ccc(C(=O)O)cc5)cc4)cc3C2=O)cc1` [CBK263603], the “% of control remaining” value is reported as 110.364.
